Laboratory results reported in PubChem BioAssay AID588342 (National Center for Advancing Translational Sciences (NCATS), 2011).
In all, about 360,000 compounds went through this assay and about 25,000 (6.9%) were called active. The shares of active, inactive and inconclusive entries below differ from those in the screen. Calls follow the shape of the dose curve; as a rule, active = well fitted inhibition curve with a large enough effect; inconclusive = small, poorly fitted or top-dose-only effect; inactive = flat fitted curve, though single readings scatter. Potencies beside an inconclusive call are fits to weak or partial responses and may not hold up.

Molecular target: Luciferin 4-monooxygenase (Photinus pyralis) (UniProt P08659)
Experiment: qHTS profiling assay for firefly luciferase inhibitor/activator using purifed enzyme and Km concentrations of substrates (counterscreen for miR-21 project); also: nearly all actives have a fitted effect of over 55% in size;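 as to activity change, negative = inhibition: plate controls were vehicle for no effect and reference inhibitor for full effect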
Conditions: purified FLuc, luminescence inhibition; series mostly up to 57.5 µM; activity change, negative = inhibition: at the top concentration
Summary of the method: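 Biochemical qHTS of compounds, final roughly 60 µM downward over six points, against 10 nM purified firefly luciferase using Km concentrations of substrates (10 uM D-luciferin, 10 uM ATP) in Tris acetate pH 7.5 buffer; luminescence output.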
Potency is read from the fitted curve at half-maximal effect; tags tell the direction and shape of the fitted curve.

UniProt P08659, sequence (P08659 whole entry, looked up): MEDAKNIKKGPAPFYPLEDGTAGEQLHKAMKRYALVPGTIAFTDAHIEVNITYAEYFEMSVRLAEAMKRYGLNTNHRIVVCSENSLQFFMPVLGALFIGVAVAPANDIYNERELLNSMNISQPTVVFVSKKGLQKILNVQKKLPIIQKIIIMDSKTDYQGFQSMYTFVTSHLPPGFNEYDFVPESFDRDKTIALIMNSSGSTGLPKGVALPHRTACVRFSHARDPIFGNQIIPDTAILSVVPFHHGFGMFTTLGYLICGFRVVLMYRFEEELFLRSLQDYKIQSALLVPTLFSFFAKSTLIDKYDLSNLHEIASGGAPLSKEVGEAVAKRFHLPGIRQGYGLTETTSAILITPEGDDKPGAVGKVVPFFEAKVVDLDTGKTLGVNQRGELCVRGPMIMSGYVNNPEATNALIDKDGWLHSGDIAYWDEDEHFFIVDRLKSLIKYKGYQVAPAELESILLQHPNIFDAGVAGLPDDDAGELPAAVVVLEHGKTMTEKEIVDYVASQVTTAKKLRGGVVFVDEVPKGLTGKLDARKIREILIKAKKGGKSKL

Compound	Potency	activity change, negative = inhibition
CN(C)C=Nc1ccc2nc3c(cc2c1)[nH]c1ccccc13	active: 1.35 µM	
COc1ccc(/C=N/NC(=O)CNC(=O)/C=C/c2ccco2)cc1OC	inconclusive: 37.9 µM [inhibitor, partial curve, poor fit]	
O=C(CSc1nc(=O)n(CCN2CCOCC2)c2c1CCC2)Nc1cccc(Cl)c1		inactive: -2.59%
COc1cc(CC(=O)OCC(=O)N2C(C)CCCC2C)cc(OC)c1OC (stereo unspecified)		inactive: -1.07%
O=C(N/N=C\c1ccccn1)c1ccccc1O	active: 12 µM	
COc1ccc(NC(=O)CSc2nnc(CCC(=O)Nc3ccc(C)c(Cl)c3)n2C)cc1		inactive: -0.687%
Cc1cccc(C(=O)NCC(=O)NC2CCC(C)CC2)c1 (stereo unspecified)	inconclusive: 21.3 µM [inhibitor, partial curve, poor fit]	
CCn1c2ccccc2c2cc(/C(C)=N/O)ccc21		inactive: -21.2%
CN(C)S(=O)(=O)c1ccc(-c2csc(-c3cccnc3)n2)cc1	inconclusive: 23.9 µM [inhibitor, single point]	
Cc1ccc(SCCC(=O)N2CCOCC2)cc1	inconclusive: 21.3 µM [inhibitor, partial curve, poor fit]	
Cc1cccc(N2CCN(C(=O)CNC(=O)c3cccc([N+](=O)[O-])c3)CC2)c1C		inactive: -0.852%
COCCn1c(SCC(=O)Nc2cccc(C)c2C)nc2c(oc3ccccc32)c1=O		inactive: 0.417%
CCCCOc1ccc(CN(C)c2ncnc(N)n2)cc1	inconclusive: 26.9 µM [inhibitor, partial curve, poor fit]	
Cc1cc(-c2ccc(S(=O)(=O)Nc3cc(Cl)ccc3C)s2)on1	inconclusive: 16.9 µM [inhibitor, partial curve]	
COc1ccc(CCNC(=O)c2cc3c(-c4ccc(OC)c(OC)c4)nn(C)c3s2)cc1OC	inconclusive: 30.1 µM [inhibitor, single point]	
CCn1c2ccccc2c2cc(NC(=O)COC(=O)c3ccc(NC(=O)CC#N)cc3)ccc21		inactive: 13.7%
Fc1cc(F)c2nc(Nc3nc4cc5c(cc4s3)OCO5)sc2c1	inconclusive: 8.49 µM [inhibitor, partial curve, poor fit]	
O=C(Nc1nc(-c2cccs2)cs1)c1ccc(Cl)s1	active: 13.5 µM	
O=C(N/N=C/c1sc(N2CCOCC2)nc1-c1ccccc1)c1ccccc1O	inconclusive: 23.9 µM [inhibitor, partial curve, poor fit]	
CC1CCc2sc(C(=O)N(C)CC(=O)Nc3ccc(N4CCOCC4)cc3)cc2C1 (stereo unspecified)	inconclusive: 37.9 µM [inhibitor, partial curve, poor fit]	
COc1ccc(/C=C/C(=O)Nc2cc(C)on2)cc1	inconclusive: 1.51 µM [inhibitor, full curve]	
C/C(CC(C)C)=N\NC(=O)Nc1ccccc1	inconclusive: 13.5 µM [inhibitor, partial curve, poor fit]	
Cc1ccc2oc(-c3ccc(NC(=O)c4ccncc4)cc3O)nc2c1	inconclusive: 13.5 µM [inhibitor, partial curve]	

Compound	Potency	activity change, negative = inhibition
O=C(NCCCCc1ccccc1)c1ccccc1F	inconclusive: 26.9 µM [inhibitor, partial curve, poor fit]	
Cc1cccc(Nc2ccc([N+](=O)[O-])cc2C(=O)O)c1	inconclusive: 26.9 µM [inhibitor, single point]	
CC(C(=O)NC1C=CS(=O)(=O)C1)N1C(=O)/C(=C/c2ccc(Cl)cc2)SC1=S (stereo unspecified)	inconclusive: 26.9 µM [inhibitor, single point]	
CC(O)c1cccc(NC(=O)Nc2cccc(NC(=O)Nc3cccc(C(C)O)c3)c2)c1 (stereo unspecified)	inconclusive: 21.3 µM [inhibitor, single point]	
CCN1CCOC(=O)C1CC(=O)Nc1ccc(C)c(Cl)c1 (stereo unspecified)		inactive: -5.61%
Cc1cccc(C(=O)Nc2ccc(C(=O)/C=C/c3ccncc3)cc2)c1	inconclusive: 37.9 µM [inhibitor, partial curve, poor fit]	
O=C(CSc1nnc(-c2ccco2)o1)N1CCCCC1	inconclusive: 16.9 µM [inhibitor, partial curve]	
O=C(NC1CCCCC1)c1cc2cc(Br)ccc2o1	active: 4.78 µM	
COc1ccccc1-c1cc(C(=O)Nc2c(C)n(C)n(-c3ccccc3)c2=O)no1		inactive: -7.09%
Cc1cccc(N(C)S(=O)(=O)c2csc(C(N)=O)c2)c1		inactive: -1.35%
O=C(O)c1cccc(CSc2nnc(-c3ccco3)o2)c1	inconclusive: 26.9 µM [inhibitor, partial curve, poor fit]	
O=C(CCCSc1nc2ccccc2s1)NC1=NCCS1	inconclusive: 19 µM [inhibitor, single point]	
O=C(O)CNC(=O)C12CC3CC(CC(Cl)(C3)C1)C2		inactive: -4.73%
CC(C)(C)NC(=O)c1cc(-c2ccccc2)n[nH]1	inconclusive: 21.3 µM [inhibitor, single point]	
CN1CCN(C2(CNC(=O)c3ccc([N+](=O)[O-])cc3)CCCCC2)CC1		inactive: -6.2%
COc1ccc(-c2cc(C(=O)Nc3ccccc3N3CCOCC3)c3ccccc3n2)cc1OC	inconclusive: 16.9 µM [inhibitor, partial curve, poor fit]	
CCOC(=O)c1ccc(NC(=O)c2ccc(OC(C)C)c(OC)c2)cc1	inconclusive: 23.9 µM [inhibitor, single point]	
CCn1cc(-c2n[nH]c(=S)n2-c2ccc(C)cc2Br)c(=O)c2ccc(C)nc21		inactive: 3.68%
c1cnc(Nc2nc(-c3ccc4ccccc4c3)cs2)nc1	inconclusive: 0.107 µM [inhibitor, full curve]	
Cc1ccc2nc(-c3ccccc3)cc(C(=O)N(C)CC(=O)Nc3ccccc3Br)c2c1	active: 16.9 µM	
CC(CCc1ccccc1)NC(=O)C(=O)Nc1ccccc1 (stereo unspecified)	inconclusive: 8.49 µM [inhibitor, partial curve]	
C=CCn1c(SCC(=O)Nc2cccc(S(=O)(=O)N(C)c3ccccc3)c2)nnc1C1CC1		inactive: 4.09%
Cc1ccc2c(CC(=O)Nc3ccc(S(=O)(=O)N4CCCCC4C)cc3)coc2c1C (stereo unspecified)		inactive: -1.74%
